# Results reported in publication PMC4336329 (PLoS ONE, 2015).
# In all, about 310,000 compounds went through this assay and about 2,200 (0.71%) showed an effect of 50% or more. Effects have a minus sign here. Some of the results follow.
# Target: human ether-à-go-go-related gene (hERG) potassium channel (human, UniProt Q12809)
# Test: primary screen, population patch clamp on CHO cells stably expressing hERG
# Sequence of human ether-à-go-go-related gene (hERG) potassium channel (Q12809 whole entry, looked up): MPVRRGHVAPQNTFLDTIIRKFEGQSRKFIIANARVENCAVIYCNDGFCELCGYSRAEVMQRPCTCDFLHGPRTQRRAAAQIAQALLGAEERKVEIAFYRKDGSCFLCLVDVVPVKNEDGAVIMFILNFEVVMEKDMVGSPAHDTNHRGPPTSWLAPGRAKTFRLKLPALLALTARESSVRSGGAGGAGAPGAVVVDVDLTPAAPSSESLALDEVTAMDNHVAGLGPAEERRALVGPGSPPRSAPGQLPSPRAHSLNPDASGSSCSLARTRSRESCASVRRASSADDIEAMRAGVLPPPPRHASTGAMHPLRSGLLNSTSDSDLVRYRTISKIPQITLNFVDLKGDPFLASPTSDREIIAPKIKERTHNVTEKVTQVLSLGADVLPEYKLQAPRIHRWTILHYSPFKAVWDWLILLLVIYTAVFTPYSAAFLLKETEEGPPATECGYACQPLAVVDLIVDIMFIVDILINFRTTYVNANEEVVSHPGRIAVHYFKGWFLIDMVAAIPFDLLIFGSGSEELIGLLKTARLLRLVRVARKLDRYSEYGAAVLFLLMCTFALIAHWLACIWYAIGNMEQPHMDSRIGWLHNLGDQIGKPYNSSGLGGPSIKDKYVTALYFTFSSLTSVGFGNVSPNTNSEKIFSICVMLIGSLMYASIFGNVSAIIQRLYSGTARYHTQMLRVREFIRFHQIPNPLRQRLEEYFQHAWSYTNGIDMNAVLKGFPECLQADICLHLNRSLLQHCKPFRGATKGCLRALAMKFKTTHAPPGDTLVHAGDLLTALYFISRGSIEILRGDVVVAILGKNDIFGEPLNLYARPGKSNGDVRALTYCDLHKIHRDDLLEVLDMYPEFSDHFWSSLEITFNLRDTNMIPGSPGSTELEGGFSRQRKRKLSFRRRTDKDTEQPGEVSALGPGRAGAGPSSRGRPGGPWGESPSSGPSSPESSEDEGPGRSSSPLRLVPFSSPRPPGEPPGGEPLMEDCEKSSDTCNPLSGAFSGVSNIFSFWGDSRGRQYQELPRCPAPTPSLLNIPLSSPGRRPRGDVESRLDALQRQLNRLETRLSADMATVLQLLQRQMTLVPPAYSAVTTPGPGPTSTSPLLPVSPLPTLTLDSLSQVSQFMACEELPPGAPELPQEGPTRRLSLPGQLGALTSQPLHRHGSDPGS
row,SMILES,"hERG current change (%, negative = inhibition) at 1uM [%]"
1,CCOc1cc(/C=N/Nc2nn3cnnc3c3ccccc23)ccc1O,-5.29
2,Cn1cc(CNC(=O)C2CCC(=O)N(Cc3ccc(Cl)cc3)C2)cn1 (stereo not drawn),8.02
3,O=C(CCc1ccccc1)N1C[C@H]2C[C@@H](C1)c1cccc(=O)n1C2,9.87
4,CCN(CC)c1ccc(C2CC(=O)Nc3cc(OC)c(OC)cc32)cc1 (stereo not drawn),13
5,CCCOc1ccc(N2C(=O)CC(N3CC=C(c4ccccc4)CC3)C2=O)cc1 (stereo not drawn),8.61
6,COc1ccccc1/C=N/NC(=O)CO,13.7
7,CCc1ccc(OC)c(S(=O)(=O)NCCOc2ccccc2)c1,10.9
8,CCN1CC(CN(C)Cc2nc(-c3ccco3)oc2C)CC1=O (stereo not drawn),9.66
9,Cc1nnc(SCc2ccccc2C#N)n1-c1ccccc1,4.48
10,Cc1c(C(=S)Nc2ccccc2)cnn1-c1ccccc1,7.57
11,CCn1c(C)nc2cc(C(=O)NNC(=S)Nc3ccc(Cl)cc3Cl)ccc21,13.4
12,O=C(CCn1c(=O)oc2ccccc21)N1CCN(c2ccc(F)cc2)CC1,-27.1
13,COC(=O)c1ccccc1NC(=O)C1CCN(C(=O)c2cc(OC)cc(OC)c2)CC1,-5.95
14,COc1ccc(N2CCN(c3cnc4ccccc4n3)CC2)cc1,10.4
15,C[C@H]1O[C@@H](OC2CC[C@]3(C=O)[C@H]4CC[C@]5(C)[C@@H](C6=CC(=O)OC6)CC[C@]5(O)[C@@H]4CC[C@]3(O)C2)CC2OC(C)(C)OC21 (stereo partly drawn),-2.38
16,CCc1ccc(CNC(=O)CCc2nnc(Cc3cccc(C(F)(F)F)c3)o2)nc1,-20.3
17,COc1ccc(NC(=O)N2CCc3ccccc3C2)c(OC)c1,2.48
18,Cc1ccc(S(=O)(=O)N2CCOCC2)cc1NC(=O)COC(=O)c1cnccn1,11.9
19,Cc1cc(C)nc(NC(=O)c2cc([N+](=O)[O-])cc([N+](=O)[O-])c2)n1,5.91
20,COc1ccc(C2c3[nH]c4ccccc4c3C[C@H]3C(=O)N(c4ccccc4C(=O)N4CCC[C@@H]4C(=O)O)C(=O)N23)cc1 (stereo partly drawn),14.3
21,Cc1nnsc1NC(=O)OCC(C)C,19.6
22,CCCn1nnnc1NCc1ccc(N(CC)CC)cc1,13.2

row,SMILES,"hERG current change (%, negative = inhibition) at 1uM [%]"
1,CCOc1ncnc2c1[nH]c1ccccc12,13.8
2,COc1ccc(CCNC(=O)CSc2nc(=O)n3cc(C)ccc3n2)cc1OC,13.6
3,CCCCS(=O)(=O)NC1=NCN(CCO)CN1,13.1
4,CCN(CC)CCN(C(=O)C1CCCCC1)c1nc2cc3c(cc2s1)OCO3.Cl,-2.01
5,COc1ccc(S(=O)(=O)N2CCOC2CNC(=O)C(=O)NCCc2ccc(OC)c(OC)c2)cc1 (stereo not drawn),7.24
6,CCN(Cc1cc2cc(C)ccc2[nH]c1=O)C(=O)c1cccc([N+](=O)[O-])c1,-2.52
7,O=C(CN1C(=O)S/C(=C\c2cccs2)C1=O)Nc1ccc(C(=O)O)c(O)c1,16.4
8,OC1CCCN(CC(O)COc2ccc(-c3ccccc3)cc2)C1 (stereo not drawn),-0.151
9,Cc1ccc(C(=O)NCCCNC(=O)COc2ccccc2Cl)cn1,12.5
10,Cc1nc2ccc(S(=O)(=O)NC(C(=O)N3CCn4c3nc3ccccc34)C(C)C)cc2s1 (stereo not drawn),9.51
11,O=C(NCCc1ccccn1)C1CCN(S(=O)(=O)c2ccc3ccccc3c2)CC1,2.14
12,C#CCOCCOCCOCCNc1nc(N2CCN(C(=O)C([C@@H](C)CC)n3cc(C(N)Cc4ccc(O)cc4)nn3)CC2)nc(N2CCN(C(=O)[C@H](CCC(=O)O)n3cc(C(N)Cc4ccc(O)cc4)nn3)CC2)n1.Cl (stereo partly drawn),19.4
13,COc1ccc(CNC(=O)C(c2cccc(C)c2)N(C(=O)c2csnn2)C2CC2)cc1 (stereo not drawn),-4.85
14,CNC(=O)CSc1nc2ccccc2c(=O)n1C1CCCCC1,12.6
15,COC(=O)/C(C#N)=C/c1cc(C)sc1C,17.8
16,CC(C)(C)NC(=O)CSc1ccc(S(=O)(=O)N2CCOCC2)cn1,2.24
17,CNc1c(NC(=O)c2ccc3c(c2)OCO3)c(=O)oc2ccccc12,16.4
18,CC1(C)Cc2c(sc(NC(=O)C(=O)NCCCN3CCOCC3)c2C#N)CO1,16.7
19,O=C(CSC1=NS(=O)(=O)c2ccccc2N1)NCc1ccc(F)cc1,4.29
20,O=C(/C=C/c1ccccc1Cl)Nc1cccc(S(=O)(=O)NC2=NCCCCC2)c1,-11.5
21,COc1ccccc1-n1c(-c2ccc(F)cc2)coc1=O,3.92
22,COc1cc(C2CC(=O)OC3=C2C(=O)CC(C)(C)C3)cc(OC)c1OC (stereo not drawn),15.4

row,SMILES,"hERG current change (%, negative = inhibition) at 1uM [%]"
1,Cc1ccc(OCCN(C)C(=O)C2CCC(=O)N(CC3CCCCC3)C2)cc1 (stereo not drawn),-7.77
2,CN(c1ccc(C(=O)NCC2CCCO2)cc1)S(=O)(=O)c1ccccc1 (stereo not drawn),10.6
3,Cc1ccc(C(C(=O)NC(C)(C)C)N(Cc2cccs2)C(=O)c2csnn2)cc1 (stereo not drawn),9.4
4,CCCn1nnc(NC(=O)/C=C/c2ccccc2)n1,12.2
5,O=C(Cn1ncc2c([nH]c3ccccc32)c1=O)N1CCc2ccccc2C1,16.2
6,Cc1ncc(CN2CCCCC2C(=O)Nc2ccc(Oc3ccccc3)nc2)cn1 (stereo not drawn),7.53
7,OCC1(CO)COC(CCc2ccccc2)=N1,11
8,COC(=O)c1ccc(NC(=O)c2cccc(C)c2)cc1,10.8
9,S=C(c1ccc(-c2cccc(Cl)c2)o1)N1CCCCC1,18
10,CC1CC(C)CN(CCCNC(=O)C2CCCN(S(=O)(=O)N3CC(C)CC(C)C3)C2)C1 (stereo not drawn),-17.1
11,C/C(N)=C(/C#N)C(=O)CSc1nc2ccccc2c(=O)n1-c1ccc(C)c(Cl)c1,9.81
12,CC(C)NC(=O)Cn1c(SCC(=O)N2c3ccccc3CC2C)nc2ccccc21 (stereo not drawn),3.76
13,CC1CCN(CCCCOc2ccccc2Br)CC1,-15.5
14,O=C(COc1ccc(/C=N/NC(=O)c2cc3ccccc3o2)cc1Br)Nc1ccccc1,14.2
15,COc1ccc(-c2csc(N(C)C(=O)c3ccco3)n2)cc1,11.8
16,COc1cccc(-n2nnc3c(=O)n(CC(=O)N4CCC(Cc5ccccc5)CC4)cnc32)c1,10.5
17,NC(=O)C1CCN(c2nnnn2-c2ccccc2)CC1,9.96
18,COc1ccc(NC(=O)Nc2nnc(C(C)C)s2)cc1,-1.58
19,Cc1nc(N(C)C)ncc1C(=O)O,9.59
20,COc1ccc(-c2cc(C(=O)Nc3c(C)n(C)n(-c4ccccc4)c3=O)c3ccccc3n2)cc1OC,20.5
21,COc1ccc(C2(c3ccc(OC)cc3)NC(=O)N(CC(=O)Nc3ccc(OC)c(OC)c3)C2=O)cc1,16
22,O=c1c2ccccc2nc(/C=C/c2ccccc2F)n1-c1ccccc1O,12.6

row,SMILES,"hERG current change (%, negative = inhibition) at 1uM [%]"
1,CCOC(=O)Cc1csc(NC(=O)c2ccc(C)cc2)n1,0.7
2,Cc1c(C(C)CCCO)oc(=O)c2c1Oc1c(C)c(C(C)C[C@@H](C)O)oc(=O)c1C2 (stereo partly drawn),11.6
3,CC1(C)CC(=O)C=C(c2ccc(OC(F)(F)F)cc2)C1,1.78
4,COc1ccc(-n2c(Cc3cccn3C)nnc2SCC(=O)N2CCCC2)cc1,1.38
5,CC(C)CNc1nc(S(=O)(=O)c2ccccc2)c(Cl)s1,3.46
6,Cc1ccc(C(=O)NC2CCCCCC2)o1,1.86
7,COc1cccc(CNC(=O)c2ccc(NS(=O)(=O)c3ccc4[nH]c(=O)[nH]c4c3)cc2)c1,15.3
8,CCOc1cc(/C=C2/NC(=O)N(CC(=O)Nc3cccc(C)c3)C2=O)ccc1O,8
9,CCCn1nc2cc(C(=O)NCc3ccccc3OC)ccc2c1OCC,11.9
10,COC(=O)c1ccc(NC(=O)CN2CCN(c3ccccc3C)CC2)cc1,4.67
11,CC(=O)Nc1ccc(S(=O)(=O)NC2CC2)cc1,11.1
12,CN1CCCN(C(=O)COc2ccc(F)cc2Cl)CC1,4.96
13,CCOC(=O)c1c(NC(=S)Nc2ccc(F)cc2)sc2c1CCC2,-21.8
14,Cc1ccc(O)c(NC(=S)NC(=O)c2ccc(-c3ccc(Cl)cc3)o2)c1,9.16
15,CCN(CC)C(=O)COc1ccc(CC(=O)O)cc1OC,17.5
16,O=C(NC1CCCCCC1)C1c2ccccc2C(=O)N1Cc1cccs1 (stereo not drawn),-7.02
17,Cc1ccc2c(c1)N(C(=O)CCC(=O)N1CCC3(CC1)OCCO3)CCO2,6.49
18,Cc1ccccc1C(C)NC(=O)COC(=O)Cn1cc(C(F)(F)F)ccc1=O (stereo not drawn),13.5
19,COc1cccc(CNc2ncnc3ccc(-c4c(C)noc4C)cc23)c1,14.9
20,CCNC(=O)CC1C(=O)N(c2ccc(F)cc2)C(=O)N1CCC(C)C (stereo not drawn),3.28
21,Cc1ccc(C)c(OCCC(=O)NNC(=O)c2ccccc2F)c1,3.32
